This is an account of results in publication PMC2823744.

Chains of the proteins cited; added tags and fusions are not shown. Lines headed by an entry give the natural chain unless they say otherwise; changes in a name come on top. A line that says so, or that is headed by a name, gives the form on record, which may keep a tag or linker. Residues count along the entry.
GAL4 DNA binding domain fused to the intracellular domain of LRP1 (pBIND-LRP1) (Q07954, residues 4445-4544): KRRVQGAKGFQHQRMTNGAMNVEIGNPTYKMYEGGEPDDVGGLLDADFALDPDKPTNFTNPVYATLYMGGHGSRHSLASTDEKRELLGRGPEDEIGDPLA

These are yes or no findings as the source states them, for the method shown. For part of these data: In cells and extracts the contact can be indirect. Some binding calls cover weakened binding; strength is not graded here. Where a sequence is shown, tags or fusion partners need not be part of it.

For assay [1], the target named is GAL4 DNA binding domain fused to the intracellular domain of LRP1 (pBIND-LRP1) (UniProt Q07954). The assay can be described thus: two-hybrid; Checkmate mammalian two-hybrid (Promega) in H4 neuroglioma cells; GAL4 DNA binding domain fusions (pBIND) and VP16 fusions (pACT); firefly/Renilla luciferase ratio.
Assay [2] deals with LRP1 intracellular domain with the NPTY motif of the C1 domain mutated to NATA (GAL4 DNA binding domain fusion) (UniProt Q07954). The assay is described as above.
Assay [3] addresses LRP1 intracellular domain with the NPVY motif of the C2 domain mutated to NAVA (GAL4 DNA binding domain fusion) (UniProt Q07954). The assay is described as above.
In assay [4] the target is GST fused to the cytoplasmic domain of LRP1 (GST-LICD) (UniProt Q07954). The assay can be described thus: pull-down; purified GST or GST-LRP1 cytoplasmic domain on glutathione beads incubated with 100 ug of lysate of transfected COS-7 cells; anti-V5 immunoblot; only the target purified. (In general: A western blot detects proteins with antibodies after separation by electrophoresis.)

B1: VP16 transactivation moiety fused to JIP1b (pACT-JIP1b) (protein, UniProt Q9WVI9-1 1-707)
chain: MAERESGLGGGAASPPAASPFLGLHIASPPNFRLTHDISLEEFEDEDLSEITDECGISLQCKDTLSLRPPRAGLLSAGSSGSAGSRLQAEMLQMDLIDAAGDTPGAEDDEEEEDDELAAQRPGVGPPKAESNQDPAPRSQGQGPGTGSGDTYRPKRPTTLNLFPQVPRSQDTLNNNSLGKKHSWQDRVSRSSSPLKTGEQTPPHEHICLSDELPPQGSPVPTQDRGTSTDSPCRRSAATQMAPPSGPPATAPGGRGHSHRDRIHYQADVRLEATEEIYLTPVQRPPDPAEPTSTFMPPTESRMSVSSDPDPAAYSVTAGRPHPSISEEDEGFDCLSSPERAEPPGGGWRGSLGEPPPPPRASLSSDTSALSYDSVKYTLVVDEHAQLELVSLRPCFGDYSDESDSATVYDNCASASSPYESAIGEEYEEAPQPRPPTCLSEDSTPDEPDVHFSKKFLNVFMSGRSRSSSAESFGLFSCVINGEEHEQTHRAIFRFVPRHEDELELEVDDPLLVELQAEDYWYEAYNMRTGARGVFPAYYAIEVTKEPEHMAALAKNSDWIDQFRVKFLGSVQVPYHKGNDVLCAAMQKIATTRRLTVHFNPPSSCVLEISVRGVKIGVKADDALEAKGNKCSHFFQLKNISFCGYHPKNNKYFGFITKHPADHRFACHVFVSEDSTKALAESVGRAFQQFYKQFVEYTCPTEDIYLE
B1: the binding entry in assay [1] is given as “binds”.

B2: VP16 transactivation moiety fused to Nyggf4 (pACT-Nyggf4) (protein, UniProt Q3UBG2-1 1-217)
chain: MWQPATERLQHFQTMLKSKLNVLTLKKEPIPAVLFHEPEAIELCTTTPLMKARTHSGCKVTYLGKVSTTGMQFLSGCTEKPVIELWKKHTLAREDVFPANALLEIRPFQVWLHHLDHKGEATVHMDTFQVARIAYCTADHNVSPNIFAWVYREINDDLSYQMDCHAVQCESKLEAKKLAHAMMEAFKKTFHSMKSDGRIHRSSSSEEASQELESDDG
Take B2: the binding result in assay [2] is recorded as “binds”; in assay [3], “no binding”; in assay [1], “binds”.

B3: NYGGF4-V5 (expressed in COS-7 cells) (protein, UniProt Q7Z2X4 1-250)
chain: MFSLPLSLPLCEDTAFLPSKCCSSHKTIKQARTLIMIFLASGTHFQTMLKSKLNVLTLKKEPLPAVIFHEPEAIELCTTTPLMKTRTHSGCKVTYLGKVSTTGMQFLSGCTEKPVIELWKKHTLAREDVFPANALLEIRPFQVWLHHLDHKGEATVHMDTFQVARIAYCTADHNVSPNIFAWVYREINDDLSYQMDCHAVECESKLEAKKLAHAMMEAFRKTFHSMKSDGRIHSNSSSEEVSQELESDDG
For B3, the binding entry in assay [4] is given as “binds”.

B4: VP16 transactivation moiety fused to EB-1 (pACT-EB-1) (protein, UniProt Q8BIZ1 1-1259)
chain: MGKDQELLEAARTGNVALVEKLLSGRKGGILGGGSGPLPLSNLLSIWRGPNVNCTDSSGYTALHHAALNGHKDIVLKLLQYEASTNVADNKGYFPIHLAAWKGDVEIVKILIHHGPSHSRVNEQNNENETALHCAAQYGHSEVVAVLLEELTDPTIRNSKLETPLDLAALYGRLRVVKMIISAHPNLMSCNTRKHTPLHLAARNGHKAVVQVLLEAGMDVSCQTEKGSALHEAALFGKVDVVRVLLETGIDANIKDSLGRTVLDILKEHPSQKSLQIATLLQDYLEGAGRSAAVLEEHAQEDTAQETHLSSPAESPQKTKSETVTGELSKLLDEIKLCQEKDYSFEDLCHTISDHYLDNLSKISEEELGKNGSQSVRTSSTINLSPGEVEDEEEDPNSCGPTGLWEALTPCNGCRNLGFPMLAQESYPKKRNFPMEMEPSASLDTFPSENENFLCELVDTAVTKKPCSLEIARAPSPRTDNASEVAITAPGTSHHRNSSTGPTPDCSPPSPDTALKNIVKVIRPQPKQRTSIVSSLDFQRMNHNQEYFEISTSTGCTSFTSSPAASPPTSSVETTEVKNEGAEHADDLSQQEDDEPPKEYDAGQFAGLLHGSSPACESPENPFHLYGKRNTCEDGPDEASLANSPLPFKQTPIENNPEPSVKKVKPKVVSRTIFHKRNHQLENHTIVGTRMSRSGSRNGDQWGVNPGGFVERACTLGRIRSLPKALIDMHLSKNVSKSDSDLIAYPSKDKARVNWSKSSTAERSSKDNSERTPSFTSEWEEIDKIMNSIDVGINSELEGMNGETTRPRCPVQTVGQWLESIGLPQYENHLMANGFDSVQFMGSNVMEDQDLLEIGILNSGHRQRILQAIQLLPKMRPIGHDGYHPTSVAEWLDSIELGDYTKAFLINGYTSMDLLKKIWELELINVLKISLIGHRKRILASLGDRLHDDPPQKPPRSITLREPSGNHTPPQLSPSLSQSTYTTGGSLDVPHIIMQGDARRRRNENYFDDIPRSKLERQMAQTGDWGEPSITLRPPNEATASTPVQYWQHHPEKLIFQSCDYKAFYLGSMLIKELRGTESTQDACAKMRANCRKSTEQMKKVPTIILSVSYKGVKFIDAANKNIIAEHEIRNISCAAQDPEDLSTFAYITKDLKSNHHYCHVFTAFDVNLAYEIILTLGQAFEVAYQLALQARKGGHSSTLPESFENKPSKPIPKPRVSIRKSVQIDPSEQKTLANLPWIVEPGQEAKRGINTKYETTIF
Consider B4, for which the binding entry in assay [1] is listed as “binds”.
